Source: the supplement of paper PMC3334620
Over roughly 33,000 sequences, “E-score (-0.5 to 0.5)” has its median near -0.053; the highest 2% begin near 0.37. The list shows a part of the results.

target: Hap1 (UniProt P0CE41); test: PBM E-score (8-mer binding enrichment) (E-score (-0.5 to 0.5)); higher = stronger / more preferred TF binding; most listed sequences are background and not binding sites; details: protein concentration: 200 nM; construct: GST-DNA-binding domain
Method in brief: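 Detection of bound protein used fluorescent anti-GST, with scans normalised by masliner. The proteins were GST-tagged yeast transcription factors applied at about 100-200 nM to universal all-10-mer Agilent arrays made double-stranded by primer extension. Each ungapped eight-base word, pooled with its reverse complement, was scored with an E-score from the Universal PBM Analysis Suite.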

Chain of UniProt P0CE41 (P0CE41 whole entry, the tested form may be a part): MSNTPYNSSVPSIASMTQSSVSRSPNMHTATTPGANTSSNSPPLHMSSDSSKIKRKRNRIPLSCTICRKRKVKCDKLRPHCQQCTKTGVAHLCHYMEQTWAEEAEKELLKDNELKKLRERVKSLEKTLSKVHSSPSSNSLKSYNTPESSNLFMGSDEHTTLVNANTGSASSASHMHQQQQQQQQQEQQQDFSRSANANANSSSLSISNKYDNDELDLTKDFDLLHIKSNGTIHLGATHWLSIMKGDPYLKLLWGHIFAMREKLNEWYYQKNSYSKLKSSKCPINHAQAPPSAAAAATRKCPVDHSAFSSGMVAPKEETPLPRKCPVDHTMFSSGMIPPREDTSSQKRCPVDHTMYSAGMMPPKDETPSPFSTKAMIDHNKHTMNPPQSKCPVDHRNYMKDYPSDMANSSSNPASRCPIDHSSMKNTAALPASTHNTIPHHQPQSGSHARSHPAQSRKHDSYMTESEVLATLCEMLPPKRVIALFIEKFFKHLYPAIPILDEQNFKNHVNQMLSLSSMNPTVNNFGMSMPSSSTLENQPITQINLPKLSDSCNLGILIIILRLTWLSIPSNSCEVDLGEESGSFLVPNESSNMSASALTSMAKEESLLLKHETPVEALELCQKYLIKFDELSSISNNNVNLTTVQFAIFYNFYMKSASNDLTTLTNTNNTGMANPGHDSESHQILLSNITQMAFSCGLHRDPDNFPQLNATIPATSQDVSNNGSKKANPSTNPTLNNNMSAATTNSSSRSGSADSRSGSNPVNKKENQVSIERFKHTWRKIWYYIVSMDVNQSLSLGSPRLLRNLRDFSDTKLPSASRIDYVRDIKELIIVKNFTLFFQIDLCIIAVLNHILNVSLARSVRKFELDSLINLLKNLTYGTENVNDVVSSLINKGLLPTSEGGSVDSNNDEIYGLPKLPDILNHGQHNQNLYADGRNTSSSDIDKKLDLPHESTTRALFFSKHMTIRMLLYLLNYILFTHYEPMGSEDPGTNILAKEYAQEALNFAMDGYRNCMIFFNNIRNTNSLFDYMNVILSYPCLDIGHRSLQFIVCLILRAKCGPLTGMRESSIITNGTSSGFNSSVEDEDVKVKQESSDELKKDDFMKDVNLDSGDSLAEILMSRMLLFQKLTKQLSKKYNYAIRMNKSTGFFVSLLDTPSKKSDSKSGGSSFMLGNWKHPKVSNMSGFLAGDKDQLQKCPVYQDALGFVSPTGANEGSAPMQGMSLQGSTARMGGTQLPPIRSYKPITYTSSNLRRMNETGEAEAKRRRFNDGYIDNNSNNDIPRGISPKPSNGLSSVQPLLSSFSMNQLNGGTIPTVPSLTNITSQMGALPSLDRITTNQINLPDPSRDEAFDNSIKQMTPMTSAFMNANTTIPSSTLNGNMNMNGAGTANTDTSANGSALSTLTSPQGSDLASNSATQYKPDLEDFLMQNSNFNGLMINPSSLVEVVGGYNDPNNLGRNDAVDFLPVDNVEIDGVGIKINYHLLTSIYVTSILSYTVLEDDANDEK

Sequence	PBM E-score
AGTCCGCG	0.297
AAGGTCAG	-0.291
ACTGTACT	-0.221
ATAATAGG	0.0266
ATCATGTC	-0.00168
CAGAGGGG	-0.222
CTCTATTA	-0.139
AAGGCTAG	-0.198
CGTTGGCC	0.052
ACCCTGTA	-0.0405
CTATTTTA	-0.147
ATCGTTAA	0.0671
CCAACAAG	-0.284
AGTGGTCC	0.0614
CCTGGTAC	-0.172
GTAATGTA	-0.162
CGTTACAG	-0.0836
GTTACACA	-0.229
AGGGTTCA	-0.22
CAAGATTC	0.0843
GAATCAGA	-0.0623
AGATAGAC	-0.186
ATATATGC	0.113
ACGCTTGG	-0.193
CTGCTTGA	-0.294

Sequence	PBM E-score
AGCTAACT	0.0643
ACAGTATC	-0.246
ATGAATAA	-0.153
GACGGACC	0.285
AGGGAACT	-0.024
GCTATGGA	0.0313
CGCGCATC	0.0254
CAAGGGCG	-0.0882
ATCTGGGA	-0.104
CTCCTTCC	-0.221
ACGCAGAT	0.235
ACAAAGCC	0.0502
AGGTTCGA	-0.0833
AATGATTG	-0.0237
ATGTCAAC	-0.165
AGGATCCG	0.179
TAAACACA	-0.231
GGGTGACA	-0.0219
TCCAGCAA	-0.351
AGTCGGAA	0.25
CGGTTTAG	0.203
AGCAGAAT	-0.0408
TCCTGAAA	-0.0582
CCGTCCAC	0.156
AGGTTATC	-0.0123

Sequence	PBM E-score
AGACTGTA	-0.085
ATCACGTC	-0.0726
AATGAAAA	-0.0921
ACTGTCGG	0.234
AATGGTGG	-0.174
CTACGATA	-0.179
GTGGCGCA	-0.239
GCGTCGGA	0.375
ATAAAAGA	-0.129
GCTCTAAA	-0.179
CCTATTCC	0.0975
AGATCGGG	0.153
AATGGGCA	-0.136
CGAAACCG	0.222
GCCACAGA	-0.0841
CAACTATC	0.0535
CTGTGCAC	-0.199
CAACAAGG	-0.189
AAAAATGA	-0.143
CTCCTGTC	-0.253
ATAAGGAG	0.126
GCCGTTAC	0.274
CTCCATCA	0.0253
GGTGGCAC	-0.0146
CCACCCAA	-0.106

Sequence	PBM E-score
AATAACGG	0.35
GACGATGC	-0.0394
TCGCGAGA	0.135
AGCTACGG	0.0744
ACGCGCCA	-0.0585
AGTCAAGC	-0.178
CAAAGGAC	-0.296
ATTTTTAA	0.183
CGATGGTA	-0.104
GCAACACC	0.0957
TCGCAAAA	-0.117
GGCGATAC	0.265
TCGCTCAA	-0.00285
AATGATGA	-0.0667
CTGGGATA	0.0333
AGAATTTA	-0.0441
TCGTTTAA	-0.246
TCGCGACA	0.0706
CCAGGGGA	-0.0689
CTTACCGA	0.0976
AAGCATGA	-0.053
ATTGAGGA	-0.0213
AAGGGTGG	-0.142
ATATATAG	0.11
AGCCACCA	-0.292

Sequence	PBM E-score
ACGTATGC	-0.0215
TCTAATAA	-0.211
GTTCGCTA	-0.0223
ATTCATGC	0.0263
ACCCTGAA	-0.17
AGCAACGA	-0.243
GATACGCA	-0.135
GGCAAGAA	-0.0276
GGGGCACA	-0.168
GAGCAGGA	-0.0327
TAAGAACA	0.0677
ACACAGTG	-0.131
GTTCTTTA	-0.0909
GATCAACC	0.0462
GCGTTGCA	0.0308
AAAGCCTG	-0.184
GCCTCGAA	-0.235
TAGGCCTA	-0.351
ATAGGGAC	-0.0258
CCTAGAAG	-0.0657
CTGAATTC	-0.154
ACTCTGGA	-0.192
AGGCTTCA	-0.0197
ATGTTCCA	-0.0712
ACTGGAGG	-0.0919

Sequence	PBM E-score
GCTACCAA	-0.0512
GCCGCGCC	-0.00918
AGATAGTG	0.0863
CCAGTCTC	-0.0917
CCACCACG	0.0598
GCCAAGCC	-0.0141
AACCTCAC	-0.19
CTAAACCA	-0.0316
ATATCATC	-0.106
ACGGATTA	0.142
AATGTGAA	-0.0756
ACTGCGCT	-0.253
TCGTACCA	-0.114
CAAGGTAC	-0.288
CATGTCTC	0.131
CAACGTAA	-0.247
ATAATTGC	0.0739
CGATAAGA	0.291
CGTCTGAG	-0.029
GGTGGCAA	-0.221
AGAGTTGG	-0.185
ATACGTAC	-0.0176
ATTACAGA	-0.0355
AAGAAGTG	-0.13
CGTTCATC	0.0044

Sequence	PBM E-score
CTATATTA	-0.0472
ATGACCCA	-0.186
CCCATAGC	-0.134
CCAAATTC	-0.0397
CCCTGGAG	-0.335
ATTGTAGG	-0.221
AGGGGACA	-0.158
GTCGGGAA	0.185
CCCCCGTA	-0.0945
CTACTGAA	-0.129
TACTTCAA	-0.0112
CGGGCAAG	0.174
CCTACCTC	-0.0433
GAGATAGA	-0.072
TCCATGGA	0.141
GGCCTCTA	-0.34
TAGTGTAA	-0.159
TATGCCCA	-0.128
AAATGCAC	0.224
ATCAAGTG	-0.0525
CCATATTA	-0.192
AGGAGTTC	-0.143
